From PubChem BioAssay AID488969 (Vanderbilt High Throughput Screening Facility, 2010) come the findings set out here.

Structures are written as SMILES. The full ranking holds about 110,000 compounds; the median of “z-score” is about -0.1, and the highest 2% start at about 2. Some of the results follow. Active and inactive are the calls of the source.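 The calls were made as follows: active = z-score in the third read window above 3 or below -3; inactive = the rest.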

This test concerns the target Metabotropic glutamate receptor 8 (Rattus norvegicus) (UniProt P70579). Nature of the test: mGluR8 Gi/Go-coupled signaling modulation – cell-based, rat, thallium flux, HTS, primary screen (AID 488969). The note with it: HEK293 rat mGluR8, GIRK (G protein-gated inwardly rectifying potassium channel) thallium flux, FluoZin2; at 10 µM; stronger effect = higher value; submaximal glutamate (EC20) added with thallium.
Sequence of UniProt P70579 (P70579 whole entry, looked up): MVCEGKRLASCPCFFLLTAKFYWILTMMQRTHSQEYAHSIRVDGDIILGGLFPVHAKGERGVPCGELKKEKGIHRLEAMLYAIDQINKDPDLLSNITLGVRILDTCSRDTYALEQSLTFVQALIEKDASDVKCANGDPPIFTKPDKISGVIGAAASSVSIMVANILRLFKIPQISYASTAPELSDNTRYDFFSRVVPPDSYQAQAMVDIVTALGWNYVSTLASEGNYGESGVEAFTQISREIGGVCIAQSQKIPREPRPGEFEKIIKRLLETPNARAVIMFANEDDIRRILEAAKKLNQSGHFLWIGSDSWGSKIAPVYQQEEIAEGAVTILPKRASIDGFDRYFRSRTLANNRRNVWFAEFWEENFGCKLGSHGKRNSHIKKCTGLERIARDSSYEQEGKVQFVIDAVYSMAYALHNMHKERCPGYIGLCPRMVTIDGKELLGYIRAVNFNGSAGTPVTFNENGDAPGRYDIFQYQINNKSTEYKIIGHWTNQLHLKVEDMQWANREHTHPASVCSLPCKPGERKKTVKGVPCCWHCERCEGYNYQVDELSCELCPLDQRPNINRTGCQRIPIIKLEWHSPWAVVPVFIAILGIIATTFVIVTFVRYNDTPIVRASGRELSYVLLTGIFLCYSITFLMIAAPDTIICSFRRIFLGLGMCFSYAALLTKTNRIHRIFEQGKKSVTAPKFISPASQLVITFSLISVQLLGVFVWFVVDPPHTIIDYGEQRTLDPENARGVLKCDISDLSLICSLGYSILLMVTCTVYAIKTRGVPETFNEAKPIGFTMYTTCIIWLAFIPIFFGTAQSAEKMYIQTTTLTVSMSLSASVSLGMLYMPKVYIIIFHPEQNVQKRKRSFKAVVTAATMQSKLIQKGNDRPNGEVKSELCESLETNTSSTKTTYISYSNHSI
Compound `c1ccc(-c2cc(N3CCCCC3)ncn2)cc1` returned a z-score of -0.267.
As for `Cc1cc(C)nc(N/N=C/c2ccccc2OCc2ccccc2)n1`, the z-score is 0.694.
Then `COc1cccc(C(=O)Nc2ccc3nc(N4CCOCC4)cc(C)c3c2)c1`, with -2.16.
Then `CCN(CC)/C(=N/O)NC(=O)NS(=O)(=O)c1ccc(C)cc1`, with 0.0872; and `CCCN(Cc1ccc(N(CC)CC)cc1)CC1CC1`, with 2.1; and `O=C(c1cccc(-c2nnc(-c3ccccc3)o2)c1)N1CCCCCC1`, with 0.0918.
As for `CNC(=O)c1cc2ccc(OC)cc2oc1=O`, the z-score is -0.333.
The figure for `O=C(O)C1(NS(=O)(=O)c2ccc(Cl)cc2)CCCCC1` is -0.168; for `CCOC(=O)CN1C(=O)C(C)(C)Oc2ccc(C(=O)Nc3ccccc3OC)cc21` it is 2.42.
Compound `CCCC(=O)Nc1ccc(C(=O)NCCc2ccc(F)cc2)cc1` registered a z-score of 0.0822.
The figure for `COc1ccc(NC(=O)CSc2nnc(C3CCCCC3)n2-c2ccccc2)cc1` is -1.1; for `CCCOc1ccc2c3c(c(=O)oc2c1OCCC)CCC3` it is -0.529.
The figure for `COc1ccc(CN2CCN(C)CC2)cc1OCc1ccccc1` is 0.342; for `Cc1ccc(S(=O)(=O)NCC(=O)N(CC(=O)NCc2ccccc2)CC2CCCO2)cc1` (stereo unspecified) it is -0.0118; for `CC(C)Nc1nc(NC(N)=S)nc(NC(C)C)n1` it is -0.369.
For `COc1cccc(NC(=O)C(NCC2CCCCC2)c2ccccc2)c1` (stereo unspecified), the z-score is -0.0907.
Then `CC(=O)Nc1cc2c(cc1C(=O)c1ccccc1)OCCO2`, with -0.506; and `CCCS(=O)(=O)c1nc(S(=O)(=O)c2ccc(C)cc2)c(NCCN2CCOCC2)s1`, with -0.364.
Then `CC(C)NC(=O)COC(=O)/C=C/c1ccco1`, with -0.222.
Then `OC(Cn1cccn1)c1ccccc1` (stereo unspecified), with -0.858; and `O=C(CSc1nnc(-c2cccs2)n1Cc1ccccc1)NCc1ccc2c(c1)OCO2`, with -0.89; and `COc1ccc(-c2cc(=O)[nH]c(=O)[nH]2)cc1`, with -0.123.
`COc1ccc(CCN2C(=NC(=O)CCC(=O)O)SC3CS(=O)(=O)CC32)cc1` (stereo unspecified): the z-score was -0.152.
For `O=[N+]([O-])c1ccc(NC2CCCC2)cc1`, the z-score is -0.0863.
The figure for `C=CCn1c(N)c(C(=O)OCC(C)C)c2nc3ccccc3nc21` is -2.53; for `Cn1cnnc1SC(C(=O)Nc1cccc(C(F)(F)F)c1)c1ccccc1` (stereo unspecified) it is -0.377; for `O=C(O)c1c(Cl)c(Cl)c(Cl)c(Cl)c1C(=O)N1CCOCC1` it is 0.376.
The figure for `Cc1cc(NS(=O)(=O)c2ccc(NC(=O)COc3ccccc3C(C)C)cc2)no1` is -0.0255.
The figure for `CCOC(=O)N1CCN(C(=O)C(=O)Nc2ccc3nc4n(c(=O)c3c2)CCCCC4)CC1` is -0.447.
In the case of `CC(=O)COc1ccc2c3c(c(=O)oc2c1C)CCCCC3`, the z-score is -0.492.
The figure for `Cc1ccc(C)c(N2CCN(C(c3ccncc3)c3nnnn3Cc3ccccc3)CC2)c1` (stereo unspecified) is 0.281.
Then `Cc1occc1C(=O)NNC(=O)C(c1ccccc1)c1ccccc1`, with -0.78; and `O=C(O)c1ccccc1NS(=O)(=O)c1cccc(C(F)(F)F)c1`, with -0.814; and `C/C(=N\NC(=O)c1ccc(C)cc1C)c1ccc(-n2ccnc2)cc1`, with -0.0942.
The figure for `COc1cccc(-c2cc3c(-n4cccc4)ncnc3o2)c1` is -0.0571; for `O=C(NCC1CCCO1)c1ccc(CS(=O)(=O)Cc2ccc(F)cc2)o1` (stereo unspecified) it is 0.407.
As for `COc1ccc(OCCC(=O)OCc2c(C)noc2C)cc1`, the z-score was -0.229.
As for `O=C(NCCCN1CCOCC1)c1cc(-c2ccc(O)cc2)on1`, the z-score was -0.342.
Then `CN(C(=O)Nc1ccc(Cl)cc1Cl)[C@H]1c2cc(Br)ccc2OC[C@H]1CO`, with -0.211; and `Cc1ccc(C)n1NC(=O)c1ccc(O)cc1`, with 0.257.
The figure for `O=C(NCc1ccc(Cl)cc1)c1cc(=O)nc2sc(-c3ccccc3)nn12` is 0.238.
The figure for `CCCCNC(=O)CNC(=O)c1cccs1` is 0.132; for `CCN(CC)C(=O)c1c([N+](=O)[O-])c(C(C)(C)C)nn1C` it is 0.0173; for `CCNS(=O)(=O)c1ccc(NC(=O)c2cncc(Br)c2)cc1` it is -0.176.
For `Cc1cc(C(=O)N/N=C/c2cc(Br)cc(Br)c2OC(=O)c2ccccc2)n[nH]1`, the z-score was -0.0369.
The figure for `CCCCn1c(CCn2nc(C)c(Br)c2C)n[nH]c1=S` is -0.487; for `O=C(Nc1ccccc1C(=O)NCCN1CCOCC1)c1ccco1` it is -0.118; for `CCC(C)NC(=O)CSc1ncccc1C(=O)O` (stereo unspecified) it is 0.263.
As to `CCCN1CCN(CCCNC(=O)Cn2ncc3c4ccccc4n(C)c3c2=O)CC1`, the z-score was -0.237.
`Cc1ccc2nc(NC(=O)c3ccco3)sc2c1` registered a z-score of -0.314.
Take `COC(=O)Cn1c(CCS(=O)(=O)c2ccc(C)cc2)nc2ccccc21`: the z-score is -2.31.
With `COC(=O)Cc1c(C)nc2nc(NCc3ccccc3OC)[nH]n2c1=O`, the z-score was -0.36.
`C/C(=N\NC(=O)C1CC1(C)c1ccccc1)c1ccco1` (stereo unspecified) came in with a z-score of -0.213.
Then `CCCCCOc1ccc(/C=C/C(=O)NCCc2nc3ccccc3[nH]2)cc1OC`, with -0.533; and `CC1=NN(Cc2ccccc2)C(=O)C1C(c1ccc(Cl)cc1)C(C#N)C#N` (stereo unspecified), with 0.0177; and `CC(=O)c1c(C(C)=O)c(C)n(NC(=O)c2ccccc2O)c1C`, with -0.206.
`O=C(c1ccco1)N1CCN(C/C=C/c2ccccc2)CC1` registered a z-score of 1.1.
`O=C(CN1C(=O)c2ccccc2S1(=O)=O)NC1CCCC1` registered a z-score of -0.378.
The figure for `Cc1ccccc1OCC(=O)Nn1c(COc2ccccc2)nc2ccccc2c1=O` is 0.187; for `CCOC(=O)CC(=O)CSc1nc2c(sc(=S)n2-c2ccccc2)c(=O)[nH]1` it is -0.366.
Then `O=C1Nc2ccc(Br)cc2/C1=N/N=C/C1=C(N2CCOCC2)C(=C\c2ccccc2)/CC1`, with 0.35; and `CN=C1c2c(-c3ccccc3)c3cc(OC)ccc3n2CCN1C`, with active: 4.2; and `c1ccc(N2CCOCC2)c(Nc2nc3ccccc3n3cnnc23)c1`, with 0.446.
Then `COc1cccc(N2CC(C(=O)Nc3nnc(SCc4cccnc4)s3)CC2=O)c1` (stereo unspecified), with 0.711.
In the case of `COC(=O)Nc1ccc([N+](=O)[O-])cc1OC`, the z-score was -0.117.
Then `Cc1noc(C)c1S(=O)(=O)N1CCC(C(=O)N2CCN(C(=O)c3ccco3)CC2)CC1`, with -0.53.
The figure for `CCOC(=O)N1CCN(C(=O)c2csc3c2CCCCC3)CC1` is 0.806.
Then `CNC(=O)CSc1nnc(-c2cc3c(C)nn(-c4ccccc4)c3s2)n1C`, with -0.604; and `CC(=O)Nc1ccc(S(=O)(=O)/N=C2\SCCN2S(=O)(=O)c2ccc(NC(C)=O)cc2)cc1`, with 0.684; and `C=CCNC(=O)/C(=C\c1ccc([N+](=O)[O-])cc1)NC(C)=O`, with -0.158.
As to `Cc1cccc(C)c1NC(=S)N(c1ccccc1)C(C)C`, the z-score is -0.568.
The figure for `Cc1ccc(NC(=S)NNC(=O)c2nn(C)cc2Cl)cc1` is -0.547; for `CCCOc1ccc(C(=O)NCC(c2ccco2)N(C)C)cc1OC` (stereo unspecified) it is 0.199; for `N#Cc1c(-c2ccccc2)c(-c2ccccc2)n(Cc2ccco2)c1NC(=O)c1cccs1` it is -0.156.
Compound `O=C(Nc1ccccc1)OC1CCC2CC1CCC2OC(=O)Nc1ccccc1` (stereo unspecified) gave a z-score of 0.663.
Then `O=C(Oc1ccc(F)cc1C(=O)/C=C/c1cccs1)c1cccc([N+](=O)[O-])c1`, with 0.0714.
Then `COc1ccc(/C=C2/SC(c3ccc(C)cc3)=NC2=O)cc1OC`, with 0.0235.
Then `CSc1nc(-c2ccco2)nn1C(=O)c1ccccc1`, with -0.177; and `C=CCNC1=C(Cl)C(=O)c2ccccc2C1=O`, with -0.82; and `CC1(C)C(C=C(Cl)Cl)C1C(=O)Nc1ccc([N+](=O)[O-])cc1` (stereo unspecified), with -0.275.
`N#C/C(=N\Nc1c(Cl)cccc1Cl)C(=O)NN` returned a z-score of -0.152.
The figure for `Cn1c(=O)c2c(ncn2CC(=O)OCC(=O)Nc2ccccc2Cl)n(C)c1=O` is -0.159; for `O=C(O)C1CCCCC1C(=O)NCc1ccc(F)cc1` (stereo unspecified) it is -0.0598; for `C=CCOc1ccc(CNc2ccc(NC(=O)CCC)cc2)cc1OCC` it is -0.288.
Then `CC(C)[C@H](NC(=O)Nc1ccc2c(c1)OCCO2)C(=O)O`, with -0.245; and `Cc1cc(NC(=O)C2CCCN(S(=O)(=O)c3c(C)noc3C)C2)n[nH]1` (stereo unspecified), with 0.383; and `COc1ccc(CCNC(=O)c2ccc(CS(=O)(=O)c3ccc(Cl)cc3)o2)cc1OC`, with -0.0275.
The figure for `CC(=O)Nc1ccccc1-c1nc2ccc(C(=O)N3CCN(c4ccccc4)CC3)cc2[nH]c1=O` is -0.0342.
The compound `O=C(Cn1cnc2c(nnn2Cc2ccccc2F)c1=O)NCC1CCCO1` (stereo unspecified) gave a z-score of 0.111.
Then `O=C(CN1C(=O)C2CC=CCC2C1=O)NC1CCCc2ccccc21` (stereo unspecified), with -0.0984.
The figure for `O=C(NCc1nc2ccccc2[nH]1)c1cccs1` is -0.444; for `CCOC(=O)c1c(NC(=O)Cn2c(=O)oc3ccccc32)oc(C)c1C(C)=O` it is -0.0534.
The compound `Cc1nn(-c2ccccc2)c(C)c1C(=O)OCC(=O)NC12CC3CC(CC(C3)C1)C2` returned a z-score of -0.731.
In turn, `Cc1cc(C)n(CC(=O)N/N=C/c2ccc(C)o2)n1` had a z-score of -0.0886.
The figure for `O=C(CNC(=O)C12CC3CC(CC(C3)C1)C2)N1CCN(S(=O)(=O)c2cccs2)CC1` is -0.178; for `CCN(CC)S(=O)(=O)c1cccc(NC(=O)c2cc(-c3cccs3)nn2-c2ccccc2)c1` it is -0.292.
`O=C(COc1cc(Cl)c(Cl)cc1Cl)NC(=O)NC1CCCC1` came in with a z-score of -0.00654.
In turn, `Cc1nn(C(C)c2n[nH]c(=S)n2-c2cccc(Cl)c2)c(C)c1[N+](=O)[O-]` (stereo unspecified) yielded a z-score of -0.0289.
The figure for `CC(C)n1cc(/C=N/NC(=O)COc2cccc3cccnc23)c2ccccc21` is -0.481; for `Cc1cc(C)nc(SCc2ccc(C(=O)N/N=C/C3CCCCC3)cc2)n1` it is 0.0492; for `N#Cc1c(NCCN)nc(-c2ccccc2)c2c1CCCC2` it is 0.97.
The figure for `c1cc2ccc3ccc(-n4cnnn4)c4ccc(c1)c2c34` is -0.193.
The figure for `COc1ccc(NC(=O)C2CCC(C)(C(=O)O)C2(C)C)cc1` (stereo unspecified) is -0.258; for `CC(Oc1ccc(C(C)(C)C)cc1)c1ccnc2nc(/N=C/N(C)C)nn12` (stereo unspecified) it is -0.181.
As for `CN(C)C(=O)c1c([N+](=O)[O-])ncn1C`, the z-score was -0.0559.
Then `CC1=CC(C)(C)Nc2ccc(OC(=O)C(C)N3C(=O)c4ccccc4C3=O)cc21` (stereo unspecified), with -0.257; and `CCOC(=O)N1CCN(c2c(N3CC=C(c4ccccc4)CC3)c(=O)c2=O)CC1`, with -0.121; and `CCCC(=O)Nc1ccc(Cl)c(NC(=O)C(C)(C)C)c1`, with -0.219.
The figure for `O=C1C2C3C=CC(C3)C2C(=O)N1c1ccc2c(c1)OCO2` (stereo unspecified) is 0.364.
The figure for `Cc1ccccc1OCCCC(=O)Nc1ccc(Br)cc1` is -0.372; for `COc1ccc(-c2cc(C(=O)NCc3ccco3)no2)cc1OC` it is -0.404.
